This is an account of results in paper PMC4336329 (PLoS ONE, 2015).

About 14,000 (4.5%) of roughly 310,000 compounds showed an effect of 50% or more. Effects have a minus sign here. This is one part of the list.
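Further: peak tail current of the secondary pulse compared with the same well before compound.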

Sequence of human ether-à-go-go-related gene (hERG) potassium channel (Q12809 whole entry, looked up): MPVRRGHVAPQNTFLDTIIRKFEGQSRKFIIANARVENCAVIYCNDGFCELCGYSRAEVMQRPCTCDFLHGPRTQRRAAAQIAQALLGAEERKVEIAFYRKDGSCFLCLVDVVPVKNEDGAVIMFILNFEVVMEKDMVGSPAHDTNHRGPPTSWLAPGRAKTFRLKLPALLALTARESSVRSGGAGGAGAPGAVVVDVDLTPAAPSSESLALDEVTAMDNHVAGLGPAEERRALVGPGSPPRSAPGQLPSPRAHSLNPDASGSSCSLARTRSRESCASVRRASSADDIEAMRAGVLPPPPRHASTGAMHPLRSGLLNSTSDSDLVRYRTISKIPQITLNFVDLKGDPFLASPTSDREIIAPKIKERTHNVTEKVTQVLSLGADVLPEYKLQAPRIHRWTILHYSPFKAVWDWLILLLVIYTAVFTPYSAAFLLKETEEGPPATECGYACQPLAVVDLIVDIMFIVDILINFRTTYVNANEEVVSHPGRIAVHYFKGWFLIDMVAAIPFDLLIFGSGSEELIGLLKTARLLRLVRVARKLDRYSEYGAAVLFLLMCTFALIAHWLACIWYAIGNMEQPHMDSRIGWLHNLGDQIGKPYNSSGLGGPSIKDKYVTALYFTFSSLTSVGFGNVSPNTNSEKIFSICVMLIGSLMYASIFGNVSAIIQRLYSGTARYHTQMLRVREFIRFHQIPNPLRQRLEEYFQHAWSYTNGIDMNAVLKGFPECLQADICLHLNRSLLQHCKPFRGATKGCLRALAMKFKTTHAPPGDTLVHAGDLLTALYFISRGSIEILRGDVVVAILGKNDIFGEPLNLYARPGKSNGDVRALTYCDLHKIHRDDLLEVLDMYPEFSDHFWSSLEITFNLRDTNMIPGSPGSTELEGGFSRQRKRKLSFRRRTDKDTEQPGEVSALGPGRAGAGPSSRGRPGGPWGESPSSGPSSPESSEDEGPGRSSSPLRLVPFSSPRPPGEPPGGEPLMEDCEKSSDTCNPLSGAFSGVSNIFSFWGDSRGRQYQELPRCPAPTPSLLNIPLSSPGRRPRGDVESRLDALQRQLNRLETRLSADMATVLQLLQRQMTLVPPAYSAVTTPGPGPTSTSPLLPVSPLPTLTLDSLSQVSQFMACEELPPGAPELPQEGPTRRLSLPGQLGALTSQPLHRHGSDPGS

This experiment has as its target human ether-à-go-go-related gene (hERG) potassium channel (human, UniProt Q12809). Nature of the experiment: primary screen, population patch clamp on CHO cells stably expressing hERG.
Regarding `O=C(CSc1ncccc1C(=O)O)Nc1ccc2c(c1)OCCO2`, the “hERG current change (%, negative = inhibition) at 10uM” value was found to be 0.463%.

With `CS(=O)(=O)N(CC(N)=O)c1ccc(F)c(Cl)c1`, the “hERG current change (%, negative = inhibition) at 10uM” value stood at 5.98%.

On to `Cc1ccc(C(=O)N2CCC(C(=O)c3ccc(Cl)cc3)CC2)cc1`, for which the “hERG current change (%, negative = inhibition) at 10uM” value is -68.4%.

Consider `CC1(C)CC(=O)C(N=Nc2ccc(S(=O)(=O)N3CCOCC3)cc2)=C(O)C1`, for which the “hERG current change (%, negative = inhibition) at 10uM” value is 25.4%.

For the compound `CC1(C)CC2(CCO1)C(Nc1ccccc1)=NC(=S)N2c1ccccc1` (stereo not shown), the “hERG current change (%, negative = inhibition) at 10uM” value is recorded as -6.5%.

With `O=c1cc(N2CCCCC2)c(-c2ccccc2)nn1Cc1ccccc1Cl`, the “hERG current change (%, negative = inhibition) at 10uM” value is -3.92%.

Take `Cc1cccc(NS(=O)(=O)c2nnc(NC(=O)CC(C)C)s2)c1`: the “hERG current change (%, negative = inhibition) at 10uM” value was 15.5%.

On to `COc1cccc(OCCSc2nc(C)c(Cc3ccccc3)c(=O)[nH]2)c1`, for which the “hERG current change (%, negative = inhibition) at 10uM” value worked out at 15.5%.

On to `COCC(=O)N(C)c1nnc(-c2cnc(C)cn2)s1`, for which the “hERG current change (%, negative = inhibition) at 10uM” value is recorded as 6.68%.

As for `Cc1cc(C)c(C)c(S(=O)(=O)N2CCN(C)CC2)c1C`, the “hERG current change (%, negative = inhibition) at 10uM” value is 10.9%.

In the case of `CCCCNC(=S)N(CCN(CC)CC)Cc1cc2cc3c(cc2[nH]c1=O)OCO3`, the “hERG current change (%, negative = inhibition) at 10uM” value was -33.3%.

With `COc1ccc(N(CC(=O)N/N=C/c2cc(OC)ccc2OC)S(=O)(=O)c2ccccc2)cc1`, the “hERG current change (%, negative = inhibition) at 10uM” value is on record as 5.48%.

With `CCC(=O)C(C#N)(c1ccc(OC)c(OC)c1)C(C)C` (stereo not shown), the “hERG current change (%, negative = inhibition) at 10uM” value was -7.65%.

As to `O=c1[nH]c2ccccc2o1`, the “hERG current change (%, negative = inhibition) at 10uM” value is reported as 20.3%.

Turning to `CCCn1nc(NC(=O)c2ccco2)c2cc3ccccc3nc21`, the “hERG current change (%, negative = inhibition) at 10uM” value is -31.4%.

`Cc1cnn(CCC(=O)NNC(=S)Nc2ccc(F)cc2)c1`: the “hERG current change (%, negative = inhibition) at 10uM” value turned out to be 13.8%.

In the case of `CC(C)N(CCNC(=O)C1CCC(=O)N1Cc1ccc(F)cc1)Cc1ccccc1` (stereo not shown), the “hERG current change (%, negative = inhibition) at 10uM” value is -13%.

Consider `O=C1CC(c2ccc(F)cc2)Cc2nc(N3CCOCC3)ncc21` (stereo not shown), for which the “hERG current change (%, negative = inhibition) at 10uM” value is -1.81%.

Consider `COc1ccc(NC(=O)CCN2CCCC(C)C2)cc1` (stereo not shown), for which the “hERG current change (%, negative = inhibition) at 10uM” value was -23.2%.

As to `CNC(=O)c1ccccc1Sc1cccc2cccc(C(=O)O)c12`, the “hERG current change (%, negative = inhibition) at 10uM” value was found to be 12.3%.

As to `Cc1ccc(/C(C#N)=C\c2ccc(N3CCOCC3)o2)cc1`, the “hERG current change (%, negative = inhibition) at 10uM” value was -15.4%.

Take `CCN(CC)CCNC(=O)/C(=C/c1cn(CC)c2ccccc12)NC(=O)c1cc(OC)c(OC)c(OC)c1`: the “hERG current change (%, negative = inhibition) at 10uM” value is reported as 8.3%.

For the compound `CC(=O)Nc1ccc(S(=O)(=O)NNC(=O)c2sc(=S)n(C)c2C)cc1`, the “hERG current change (%, negative = inhibition) at 10uM” value is 0.763%.

As to `CCCCNc1nnc(SCC(=O)c2c[nH]c3ccccc23)s1`, the “hERG current change (%, negative = inhibition) at 10uM” value is -2.72%.

As for `CC(=O)c1ccc(OCC(=O)NC2CCCCCC2)cc1`, the “hERG current change (%, negative = inhibition) at 10uM” value is recorded as -3.21%.

As for `Cc1cccc(-n2ncc3c2CCCC3NC(=O)C2=CC(=O)CC(C)(C)O2)c1C` (stereo not shown), the “hERG current change (%, negative = inhibition) at 10uM” value is on record as -0.83%.

Take `CNc1oc(-c2ccc(F)cc2)nc1S(=O)(=O)c1ccccc1`: the “hERG current change (%, negative = inhibition) at 10uM” value is given as -2.4%.

Consider `Cc1cccc(NC(=O)CSCC(=O)Nc2ccccc2C(=O)NC2CC2)c1`, for which the “hERG current change (%, negative = inhibition) at 10uM” value was -1.72%.

As to `CCCC(=O)Nc1nnc(SCC(=O)NCc2ccc3c(c2)OCO3)s1`, the “hERG current change (%, negative = inhibition) at 10uM” value amounted to 25.5%.

As to `O=C(CS(=O)(=O)c1ccccc1)Nc1cccnc1`, the “hERG current change (%, negative = inhibition) at 10uM” value was determined as 24.9%.

Consider `COc1ccccc1S(=O)Cc1ccc(C(=O)NCc2ccccc2Cl)o1` (stereo not shown), for which the “hERG current change (%, negative = inhibition) at 10uM” value was -19.5%.

On to `CC(/C=C/c1ccccc1)=N\NC(=O)c1cc(C)nc2ccccc12`, for which the “hERG current change (%, negative = inhibition) at 10uM” value came to 8.41%.

Regarding `O=C(O)c1cc2cccc(S(=O)(=O)N3CCOCC3)c2cc1O`, the “hERG current change (%, negative = inhibition) at 10uM” value worked out at 12.1%.

In the case of `COc1ccc(NC(=O)CN2CCN(C(=O)c3ccco3)CC2)c(OC)c1`, the “hERG current change (%, negative = inhibition) at 10uM” value is -37.4%.

As for `Cc1ccc(C(=O)NC(=S)N2CCN(c3ccccc3F)CC2)cc1`, the “hERG current change (%, negative = inhibition) at 10uM” value worked out at 4.18%.

Turning to `Cc1ncc([N+](=O)[O-])n1CCO`, the “hERG current change (%, negative = inhibition) at 10uM” value was 6.57%.

Consider `O=C(Cc1ccc(NS(=O)(=O)c2ccc(F)cc2)cc1)NCc1ccccc1`, for which the “hERG current change (%, negative = inhibition) at 10uM” value was -16.4%.

Regarding `CCOC(=O)c1[nH]c2ccccc2c1NC(=O)Nc1ccc(OC)cc1`, the “hERG current change (%, negative = inhibition) at 10uM” value is reported as 2.47%.

For the compound `COc1ccc(C(=O)NCc2ccc3c(c2)cc(C)n3C)cc1`, the “hERG current change (%, negative = inhibition) at 10uM” value came to 5.56%.

Take `CC(=O)c1ccc(S(=O)(=O)Nc2cccc(-n3cnnn3)c2)cc1`: the “hERG current change (%, negative = inhibition) at 10uM” value was found to be 4.99%.

For the compound `Cc1ccc(-c2c(C(=O)N/N=C/c3cccc(Cl)c3)nnn2-c2nonc2N)cc1`, the “hERG current change (%, negative = inhibition) at 10uM” value is given as 12.5%.

`O=C(Cn1cnc2ccccc2c1=O)NCc1cccs1`: the “hERG current change (%, negative = inhibition) at 10uM” value is 17.7%.

For `O=C(CSc1nncn1-c1ccccc1)Nc1cccc(S(=O)(=O)N2CCCCC2)c1`, the “hERG current change (%, negative = inhibition) at 10uM” value is reported as 9.1%.

For `CCc1nnc(NC(=O)CN2C(=O)c3ccccc3S2(=O)=O)s1`, the “hERG current change (%, negative = inhibition) at 10uM” value turned out to be 10.7%.

With `O=C(NCc1ccco1)C(Cc1ccccc1)N1C(=O)C2C3C=CC(C3)C2C1=O` (stereo not shown), the “hERG current change (%, negative = inhibition) at 10uM” value is -1.04%.

For the compound `CCOC(=O)CSCC(=O)Nc1ccc(S(=O)(=O)N2CCCCC2)cc1`, the “hERG current change (%, negative = inhibition) at 10uM” value is recorded as -0.639%.

Regarding `C=CCn1c(SCC(=O)Nc2cc(C)ccc2C)nnc1-c1cnccn1`, the “hERG current change (%, negative = inhibition) at 10uM” value was -14.4%.

Turning to `Cc1cccc(CC(=O)Nc2ccc(C(=O)N3CCCCC3)cc2)c1`, the “hERG current change (%, negative = inhibition) at 10uM” value came to 19.2%.

As to `CC(C)C(NC(=O)c1ccccc1)C(=O)NCc1ccccn1` (stereo not shown), the “hERG current change (%, negative = inhibition) at 10uM” value came to 9.6%.

As for `CC(=O)Nc1cccc(N)c1`, the “hERG current change (%, negative = inhibition) at 10uM” value was 12.9%.

`O=C(/C=C/c1cccs1)Nc1nccs1`: the “hERG current change (%, negative = inhibition) at 10uM” value came to 15.8%.

Regarding `CN(c1ccccc1)S(=O)(=O)c1ccc(NC(=O)c2nc(S(C)(=O)=O)ncc2Cl)cc1`, the “hERG current change (%, negative = inhibition) at 10uM” value came to 10.9%.

As for `Cc1ccc(S(=O)(=O)NCCOCCNS(=O)(=O)c2ccc(C)cc2)cc1`, the “hERG current change (%, negative = inhibition) at 10uM” value is given as -31.7%.

On to `CN1CCc2c(sc3c2c(NCc2ccco2)nc2nnnn23)C1`, for which the “hERG current change (%, negative = inhibition) at 10uM” value is -71.8%.

In the case of `Cc1ccc(OCC(=O)Nc2cccc3nsnc23)c(C)c1`, the “hERG current change (%, negative = inhibition) at 10uM” value was found to be 11.3%.

As for `CCN1CCN(c2nc3c(C)cccn3c(=O)c2/C=C(\C#N)S(=O)(=O)c2ccccc2)CC1`, the “hERG current change (%, negative = inhibition) at 10uM” value is on record as -15.7%.

For the compound `COCCn1c(SCC(=O)NC2CCCC2)nc2cccnc21`, the “hERG current change (%, negative = inhibition) at 10uM” value is 17.1%.

Turning to `COc1ccc(-c2noc(CSc3nnc(-c4ccccc4)n3C)n2)cc1`, the “hERG current change (%, negative = inhibition) at 10uM” value was -32.8%.
